Out of some 310,000 compounds screened, about 14,000 (4.5%) showed an effect of 50% or more. The effect is printed as a negative number. The list shows a part of the results.
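Further: peak tail current of the secondary pulse compared with the same well before compound.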

human ether-à-go-go-related gene (hERG) potassium channel, sequence (Q12809 whole entry, looked up): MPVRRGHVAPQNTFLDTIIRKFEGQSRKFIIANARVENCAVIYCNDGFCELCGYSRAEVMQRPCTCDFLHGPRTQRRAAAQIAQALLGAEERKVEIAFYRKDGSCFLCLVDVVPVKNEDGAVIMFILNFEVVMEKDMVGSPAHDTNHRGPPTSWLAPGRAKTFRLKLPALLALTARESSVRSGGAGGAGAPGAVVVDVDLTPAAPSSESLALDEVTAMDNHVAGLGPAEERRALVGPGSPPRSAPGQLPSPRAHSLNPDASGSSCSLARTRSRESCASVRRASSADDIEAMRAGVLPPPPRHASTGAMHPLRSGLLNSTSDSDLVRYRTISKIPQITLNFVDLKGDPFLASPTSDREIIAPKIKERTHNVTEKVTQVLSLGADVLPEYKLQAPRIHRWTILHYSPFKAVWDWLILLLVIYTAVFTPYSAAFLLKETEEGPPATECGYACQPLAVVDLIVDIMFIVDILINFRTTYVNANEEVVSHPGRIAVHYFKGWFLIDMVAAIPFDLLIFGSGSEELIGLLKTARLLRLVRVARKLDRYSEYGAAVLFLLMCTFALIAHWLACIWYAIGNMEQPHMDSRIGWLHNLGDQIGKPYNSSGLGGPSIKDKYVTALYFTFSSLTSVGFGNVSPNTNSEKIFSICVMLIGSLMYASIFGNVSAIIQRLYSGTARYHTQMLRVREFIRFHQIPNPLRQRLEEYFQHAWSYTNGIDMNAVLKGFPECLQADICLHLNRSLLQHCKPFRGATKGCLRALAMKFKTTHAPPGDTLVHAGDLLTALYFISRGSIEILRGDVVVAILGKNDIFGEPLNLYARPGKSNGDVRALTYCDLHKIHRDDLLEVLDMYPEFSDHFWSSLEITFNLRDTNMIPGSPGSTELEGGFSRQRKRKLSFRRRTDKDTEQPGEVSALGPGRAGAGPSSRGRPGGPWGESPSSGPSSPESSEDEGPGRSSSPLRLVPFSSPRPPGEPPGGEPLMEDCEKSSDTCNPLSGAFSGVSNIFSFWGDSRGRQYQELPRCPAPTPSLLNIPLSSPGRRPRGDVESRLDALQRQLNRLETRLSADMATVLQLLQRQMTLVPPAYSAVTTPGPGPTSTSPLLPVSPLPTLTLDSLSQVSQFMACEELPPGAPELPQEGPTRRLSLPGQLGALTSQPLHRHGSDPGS

This assay has as its target human ether-à-go-go-related gene (hERG) potassium channel (human, UniProt Q12809). In words: primary screen, population patch clamp on CHO cells stably expressing hERG.
Turning to `COCCn1c(N)c(Sc2ccccc2[N+](=O)[O-])c(=O)[nH]c1=O`, the “hERG current change (%, negative = inhibition) at 10uM” value is reported as -0.344%.
With `CCOCCCNC(=O)c1cn(CC)c2ccc(S(=O)(=O)N3CCCC3)cc2c1=O` the figure was -6.08%.
With `CC(=O)N1CCOc2ccc(S(=O)(=O)N(C)c3cccc(C)c3)cc21` the figure was -16.7%; with `COc1ccc(OC)c(-n2c(O)c(C=Nc3c(C)n(C)n(-c4ccccc4)c3=O)c(=O)[nH]c2=S)c1`, 17.5%; with `COCCn1c(C)cc(C2=NNC(=Nc3ccc(Cl)cc3Cl)SC2)c1C`, 7.57%.
Regarding `COc1ccccc1N(CC(=O)NC(C)(C)C)C(=O)c1ccc(Cl)nc1`, the “hERG current change (%, negative = inhibition) at 10uM” value came to 8.32%.
With `O=C(CS(=O)(=O)Cc1ccccc1)N1CCN(C(=O)c2ccco2)CC1` the figure was -30.7%; with `CSCCC(NC(=O)COc1ccccc1)C(=O)OCC(=O)c1ccccc1` (centres unmarked), 4.14%; with `O=C(COC(=O)Cc1ccccc1[N+](=O)[O-])NC1CCCC1`, -2.09%.
With `CCn1cc(CN2CCC(n3nccc3NC(=O)Cc3ccccc3)CC2)cn1` the figure was 7.27%; with `CCn1c(=O)n(CC)c2cc(N3CCCC3)c(NC(=O)c3ccccc3)cc21`, 6.71%; with `Cc1ccc(C(=O)CC2(O)C(=O)Nc3ccccc32)s1` (centres unmarked), 30.3%.
With `CCOCCCNCC(O)c1ccccc1.O=C(O)C(=O)O` (centres unmarked) the figure was 3.55%; with `CCN(CC(=O)Nc1cccc(OC)c1)C(=O)c1ccc(C)s1`, -2.47%; with `COc1cccc(-n2c(SCC(=O)NC3CCCCC3)nc3n[nH]c(C)c3c2=N)c1`, -4.43%.
On to `O=C(O)C(=O)O.O=C(c1ccc(F)cc1)N1CCN(C2CCCCC2)CC1`, for which the “hERG current change (%, negative = inhibition) at 10uM” value was -62.1%.
As to `O=C(Nc1ccc2c(c1)OCCO2)C1CCN(c2ncccn2)CC1`, the “hERG current change (%, negative = inhibition) at 10uM” value came to 26.5%.
For `Cc1c(CC(=O)O)c(=O)oc2cc3oc4c(c3cc12)CCCC4`, the “hERG current change (%, negative = inhibition) at 10uM” value was 6.56%.
With `Cc1cccc(N2C(=O)CC(N(O)c3ccccc3)C2=O)c1` (centres unmarked) the figure was 9.2%; with `Cc1nn(C)c(Sc2ccccc2N)c1[N+](=O)[O-]`, 10.3%.
The result for `O=C(c1ccc(NC2=NC3CS(=O)(=O)CC3S2)cc1)N1CCN(C(=O)c2ccco2)CC1` (centres unmarked) reads 7.17%; that for `O=C(NCCc1ccccc1)/C(=C\c1ccc([N+](=O)[O-])cc1)NC(=O)c1ccccc1`, -14.6%; that for `COc1ccccc1/C=C/C(=O)NCC(=O)N=Nc1c(O)[nH]c2ccccc12`, 1.93%.
With `CCOc1ccc(NS(=O)(=O)c2ccc(NS(=O)(=O)c3cccs3)cc2)cc1` the figure was 5.59%; with `COc1nnc(-c2ccc(C)c(S(=O)(=O)N(C)C)c2)c2ccccc12`, -77.6%; with `Cc1cc(C(=O)N2CCN(c3ncccn3)CC2)cs1`, -15.6%.
Take `NS(=O)(=O)c1cccc(NS(=O)(=O)c2ccc3ccccc3c2)c1`: the “hERG current change (%, negative = inhibition) at 10uM” value worked out at 8.67%.
With `C/C(=C(\C#N)C(=O)NC1CCCCC1)N(C)C` the figure was 10.5%; with `CCOc1ccc(C(=O)OC2CCCN(C)C2)cc1.Cl` (centres unmarked), -18.1%.
As for `COC(=O)c1sc(NC(=O)CSc2nnnn2C)nc1C`, the “hERG current change (%, negative = inhibition) at 10uM” value came out at 3.51%.
With `Cn1cccc1C(=O)NC(=O)CSc1nnc(C2CC2)n1-c1ccccc1`, the “hERG current change (%, negative = inhibition) at 10uM” value is listed as -2.78%.
As to `O=C(Cc1ccccc1)NCC(=O)N/N=C/c1ccc(Cl)cc1`, the “hERG current change (%, negative = inhibition) at 10uM” value is -20%.
The result for `CCOC(=O)C1CCN(C(=O)CSC2=NCCS2)CC1` reads 23.3%; that for `CCC(=O)c1ccc(OCC(=O)Nc2ccc(N3CCCCC3)cc2)cc1`, 9.23%; that for `Cc1c(NC(=O)C(C)OC(=O)Cc2ccccc2)c(=O)n(-c2ccccc2)n1C` (centres unmarked), 9.55%.
The result for `Cc1ccc2c(c1)C(=O)C(=O)N2CC(=O)OC(C)C` reads 7.69%.
The result for `CCOCc1c(C(=O)N2CCN(Cc3ccc(Br)s3)CC2)oc2ccccc12` reads -30.9%; that for `CCn1c(SCC(=O)N2CCC(C)CC2)nc2c(c1=O)SC(C)C2` (centres unmarked), -17.6%; that for `Cc1nn(-c2ccccc2)c(N)c1N=Nc1ccc(Cl)cc1`, 8.47%.
As for `COc1ccc(N2CCN(C(=O)[C@@H](NC(=O)c3cc(OC)cc(OC)c3)C(C)C)CC2)cc1`, the “hERG current change (%, negative = inhibition) at 10uM” value is 7.78%.
Regarding `O=C(CCNS(=O)(=O)c1ccccc1)NCCSc1ccc(Br)cc1`, the “hERG current change (%, negative = inhibition) at 10uM” value is recorded as -0.985%.
On to `COc1ccc(-c2nc3ccccc3c(=O)n2-c2ccc(OC)cc2)cc1`, for which the “hERG current change (%, negative = inhibition) at 10uM” value is on record as -4.5%.
With `COc1ccc(CC(=O)N/N=C(\C)CC(=O)NCc2ccco2)cc1OC`, the “hERG current change (%, negative = inhibition) at 10uM” value was 15.3%.
As to `CC(Cc1ccccc1)/[N+]([O-])=C\c1ccc(C(F)(F)F)cc1` (centres unmarked), the “hERG current change (%, negative = inhibition) at 10uM” value is reported as -12.6%.

Source of the values: paper PMC4336329 (PLoS ONE, 2015).
